In PubChem BioAssay AID463173 (ICCB-Longwood Screening Facility, Harvard Medical School, 2010):
Where “and” joins values, the source holds several entries; their conditions need not be identical. Equal entries are not always repeated. Among all 52,000 compounds or so, about 1,700 (3.3%) were called active. Rule as the data show it: active = survival mostly below about 52% (no sharp cut-off); inactive = mostly above about 56%. The list shows a part of the results. Some structures have more than one record in an assay (separate samples or runs), and their calls can disagree.

tested on: Wild type; assay: growth inhibition of S. aureus wild type versus tarO mutant, primary screen, teichoic acid synthesis inhibitors, RN4220, OD600 (AID 463173); conditions: S. aureus RN4220 wild type/DeltatarO growth, OD600, 18 h, stronger effect = lower value, screened at 18.75 µg/mL (by protocol)

| Compound | survival |
| --- | --- |
| COc1ccc(N2CC(NC(=O)c3ccc(S(=O)(=O)N4CCCCC4)cc3)CC2=O)cc1 (centres undefined) | inactive: 77% |
| COCCNc1nc(NCc2cccc(Cl)c2)c2cnn(C)c2n1 | inactive: 73% |
| CCc1cccc(C)c1NC(=O)Cn1nc(C)c2nn(-c3ccc(Cl)cc3)c(C)c2c1=O | inactive: 130% |
| COc1ccc(/C=C/C(=O)Nc2ccc3nc(N4CCC(C)CC4)cc(C)c3c2)cc1 | inactive: 68% |
| CCC1Oc2ccc(Cl)cc2N(CC(=O)NCCc2ccc(Cl)cc2)C1=O (centres undefined) | inactive: 78% |
| CCCN1Cc2cccc(C(=O)Nc3cccc(C(=O)OCC)c3)c2C1=O | inactive: 85% |
| CCCCS(=O)Cc1ccccc1 (centres undefined) | inactive: 102% |
| COc1ccccc1C(=O)Nc1ccc2oc(-c3cccc4c(Br)cccc34)nc2c1 | inactive: 57% |
| CCN(c1ccccc1)S(=O)(=O)c1c(-c2ccc(C)cc2)csc1C(=O)OC | inactive: 120% |
| COc1ccc2c(c1)cc1c(=O)n(CC(=O)NC3CC3)nc(C)n12 | inactive: 76% |
| N#C/C(=C\Nc1ccc2c(c1)OCCO2)c1nc2ccccc2[nH]1 | inactive: 125% |
| O=C(Cc1csc2nc(-c3ccc(F)cc3)cn12)NCc1ccccc1 | inactive: 70% |
| O=[N+]([O-])c1cc(-c2nc(-c3ccccc3)no2)ccc1NC1CCCCC1 | inactive: 85% |
| CS(=O)(=O)N1CCNCC1 | inactive: 92% |
| COc1ccc(C2c3cc(OC)c(OC)cc3CC(=O)N2c2ccc(C)c(F)c2)cc1 (centres undefined) | inactive: 79% |
| COc1ccccc1CNC(=O)CCn1c(=O)c2cccn2c2cccnc21 | inactive: 93% |
| C=Cc1ccc(Cn2c(C)c(CNCc3ccccc3C)c(C(=O)O)c2C)cc1 | inactive: 132% |
| Cc1ccc(-c2nnc(Nc3ccc(C(=O)N(C)C)cc3)c3ccccc23)cc1S(=O)(=O)N(C)C | inactive: 77% |
| O=C1OC(c2ccccc2)=C/C1=C/N1CCOCC1 | inactive: 116% |
| O=C(Nc1nnc(S(=O)(=O)N2CCCCC2)s1)c1ccccc1Br | inactive: 60% |
| Cc1ccc(NC(=O)c2ccc3c(O)c(S(=O)(=O)c4ccccc4)c(=O)[nH]c3c2)cc1Cl | inactive: 100% |
| CCN(C(=O)CN1C(=O)COc2ccc(S(=O)(=O)N3CCOCC3)cc21)c1ccc(OC)cc1 | inactive: 97% |
| O=C(COc1ccc(Cl)cc1)OCc1cc(=O)n2nc(C3CC3)sc2n1 | inactive: 84% |

| Compound | survival |
| --- | --- |
| CC(C)(C)CC(=O)NCC(c1ccc2c(c1)OCO2)N1CCOCC1 (centres undefined) | inactive: 73% |
| O=C(Nc1cccc(F)c1)c1ccc2c(c1)N(Cc1ccccc1)C(=O)c1ccccc1S2(=O)=O | inactive: 103% |
| COc1ccc(-c2nc3ccccc3s2)cc1NC(=O)c1ccc(F)cc1 | inactive: 143% |
| Cc1ccc(OCC(=O)Nc2ccccc2OCc2cc(=O)n3ccccc3n2)cc1C | inactive: 129% |
| COc1ccc(C(=O)NCC(c2ccc(N(C)C)cc2)N2CCc3ccccc32)cc1OC (centres undefined) | inactive: 75% |
| COC(=O)c1ccccc1NC(=O)C1CCN(C(=O)N2CC(C)Oc3ccccc32)CC1 (centres undefined) | inactive: 75% |
| Cc1nn2c(=O)cc(COC(=O)c3cccc(NC(=O)c4ccc(F)cc4)c3)nc2s1 | inactive: 71% |
| COc1ccc(N2CCN(C(=O)c3ccccc3N(C)S(C)(=O)=O)CC2)cc1 | inactive: 94% |
| Cc1ccc(Cl)cc1NC(=O)Cn1c(=O)n(C(C)C)c(=O)c2oc3ccccc3c21 | inactive: 83% |
| Cc1cccc(C(C)C)c1NC(=O)c1ccc2c(c1)CCN2S(C)(=O)=O | inactive: 97% |
| Cc1cccc(Nc2nnc(-c3ccc(C)c(S(=O)(=O)N4CCN(C)CC4)c3)c3ccccc23)c1 | inactive: 147% |
| Cc1ccc(-n2nc(-c3ccccc3)c3cnc4cc5c(cc4c32)OCO5)cc1C | inactive: 110% |
| CCn1c(CN2CCC(C)CC2)nc2cc(NC(=O)c3ccc([N+](=O)[O-])cc3)ccc21 | inactive: 84% |
| CC(C)CCNC(=O)C(=O)Nc1c2c(nn1-c1ccc(Cl)cc1)CSC2 | inactive: 82% |
| CC(=O)Nc1cccc(NC(=O)CSc2ccc(-c3sc(-c4ccccc4)nc3C)nn2)c1 | active: 17% |
| O=C(O)CCc1ccc(-c2ccccc2)n1-c1ccc(C(=O)O)cc1 | inactive: 131% |
| COc1cccc(NC(=O)c2oc3ccc(S(=O)(=O)N4CCCCCC4)cc3c2C)c1 | inactive: 80% |
| CCOc1ccc(S(=O)(=O)N2CCC(c3ccncc3)CC2)cc1 | inactive: 159% |
| Cc1ccc(N2C(=O)CC(NCC(=O)O)C2=O)c(C)c1 (centres undefined) | inactive: 115% |
| COc1ccc(-c2cc(C(=O)NCCc3ccc(OC)c(OC)c3)c3c(-c4ccc(F)cc4)[nH]nc3n2)cc1 | inactive: 97% |
| COc1cccc(NC(=O)CN(c2cccc(OC)c2)S(C)(=O)=O)c1 | inactive: 111% |
| CCOC(=O)c1ccc(NC(=O)Cn2c3ncccc3c(=O)n2-c2ccc(C)c(C)c2)cc1 | inactive: 73% |
| Cc1cc(C)n(-c2nc(C)c(C)c(=O)n2CC(=O)Nc2cccc([N+](=O)[O-])c2)n1 | inactive: 64% |

| Compound | survival |
| --- | --- |
| CCOC(=O)C(C)Sc1nc(-c2ccccc2)ccc1C#N (centres undefined) | inactive: 107% and active: 0% |
| CCC(C)NC(=O)c1c(C)oc2nc(C)nc(N3CCOCC3)c12 (centres undefined) | inactive: 88% |
| Cc1ccc(NC(=O)c2ccc3snnc3c2)cc1C | inactive: 97% |
| COC(=O)c1ccccc1NC(=O)c1nn(-c2ccc(OC)cc2)c(=O)c2c1c1ccccc1n2C | inactive: 78% |
| CCC(CC)C(=O)N1CCN(Cc2ccccc2)CC1 | inactive: 108% |
| COc1cccc(NC(=O)C2CCN(S(=O)(=O)c3ccc4[nH]c5c(c4c3)CCCCC5)CC2)c1 | inactive: 84% |
| CCN(CC)C(=O)Cn1c(=O)n(CCc2ccccc2)c(=O)c2ccccc21 | inactive: 90% |
| COc1cccc(N2CCN(c3ncnc4c3c(-c3ccccc3)cn4-c3cccc(C(F)(F)F)c3)CC2)c1 | inactive: 82% |
| CCCNC(=O)N1[C@H](c2cccs2)[C@@H](C)C(=O)[C@@H](C)[C@@H]1c1cccs1 | inactive: 107% |
| CCCN1C2CCCC1CC(NC(=O)Nc1ccccc1C(F)(F)F)C2 (centres undefined) | inactive: 98% |
| Cc1cc(Nc2ccc(Br)c(C)c2)n2nc(-c3ccco3)nc2n1 | active: -6% |
| COc1ccc(OC)c(NC(=O)N2CC3CCCN3c3ccccc32)c1 (centres undefined) | inactive: 80% |
| CCOC(=O)Cc1c(C(=O)OCC)nnc2c(-c3ccccc3)c(C)nn12 | inactive: 71% |
| CC(=O)c1ccc(NC(=O)CC2Oc3ccc(C)cc3NC2=O)cc1 (centres undefined) | inactive: 89% |
| COCCNc1oc(-c2ccc(OC)cc2)nc1C#N | inactive: 70% |
| CCOC(=O)c1cccc(NC(=O)N2CC=C(c3c[nH]c4ccccc34)CC2)c1 | inactive: 72% |
| Cc1cc(C)n2nc(CNS(=O)(=O)c3ccccc3)nc2n1 | inactive: 122% |
| CCOC(=O)c1ccccc1NC(=O)COC(=O)CC(C)(C)CC1=NS(=O)(=O)c2ccccc2N1 | inactive: 63% |
| COc1ccc(CNC2CCCC2)cc1 | inactive: 108% |
| COc1ccc(S(=O)(=O)NCC(c2ccc(N(C)C)cc2)N2CCc3ccccc32)cc1F (centres undefined) | inactive: 91% |
| CCOc1ccc(N(CC)S(=O)(=O)N2CCCC(C(=O)Nc3ccc(OC)c(Cl)c3)C2)cc1 (centres undefined) | inactive: 83% |
| COc1cccc(NC(=O)CSc2c3c(nc4ccccc24)CCCC3)c1 | inactive: 43% |
| O=C(O)c1ccccc1C(=O)Nc1cccnc1 | inactive: 108% |

| Compound | survival |
| --- | --- |
| Cc1cccc(NC(=O)CN2C(=O)CSc3ccc(S(=O)(=O)N4CCCC4)cc32)c1C | inactive: 98% |
| COc1ccc(-c2onc(C)c2C)cc1S(=O)(=O)N1CCN(c2cc(C)ccc2C)CC1 | inactive: 55% |
| Cc1c(Cl)ccc2sc(N3CCN(C(=O)C4CC4)CC3)nc12 | inactive: 73% |
| COc1ccc(-c2cc3nc(C)c(CCC(=O)NC(C)c4ccccc4)c(C)n3n2)c(OC)c1 (centres undefined) | inactive: 83% |
| O=C(Nc1ccccc1C(F)(F)F)N1CC=C(c2c[nH]c3ccccc23)CC1 | inactive: 127% |
| COC(=O)CC(=O)CSc1nc2cc(C(=O)NCC(C)C)ccc2c(=O)n1CCc1ccccc1 | inactive: 133% |
| Cc1nn(C(=O)c2cccc([N+](=O)[O-])c2C)c(C)c1S(=O)(=O)N1CCCCCC1 | active: -4% |
| CC1CCN(S(=O)(=O)c2ccc3c(c2)CCN3C(=O)Nc2ccc(Br)cc2F)CC1 | inactive: 84% |
| Cc1cccc(NC(=O)N2CCC(CN3CCCCCC3)CC2)c1C | inactive: 55% |
| CCOc1ccccc1C(=O)N1CCC(c2nc3ccccc3o2)CC1 | inactive: 81% |
| COc1ccc(OC)c(NC(=O)CC(=O)Nc2ccc3nc4n(c(=O)c3c2)CCCCC4)c1 | inactive: 67% |
| Cc1nc(SCC(=O)Nc2ccc(C(=O)O)cc2)n[nH]1 | inactive: 78% |
| CCc1ccccc1NC(=O)Cn1nc(N2CCN(c3ccccc3OC)CC2)ccc1=O | inactive: 82% |
| O=C(Cn1c(C(=O)NC2CCCCC2)cc2sccc21)c1ccccc1 | inactive: 136% |
| N#Cc1cc(-c2ccccc2C(F)(F)F)no1 | inactive: 93% |
| Cc1ccc(C2CCN(C(=O)c3cnn(-c4ccc(C)c(C)c4)c3C3CCN(C(=O)OC(C)(C)C)CC3)C2)cc1 (centres undefined) | inactive: 72% |
| Cc1cc(C)c(OCCOCCn2c(-c3ccc(Cl)cc3)nc3ccccc3c2=O)c(C)c1 | inactive: 51% |
| CS(=O)(=O)N(Cc1ccccc1)c1ccc(C(=O)Nc2ccc(Cl)cc2)cc1 | inactive: 168% |
| Cc1cccc(-n2nc(C)c(C(=O)N3CCN(c4ccccc4)CC3)c2-n2cccc2)c1 | inactive: 53% |
| NC(=O)CSc1nc2ccc(NC(=O)COc3ccccc3Cl)cc2s1 | inactive: 98% |
